Measurements taken from PubChem BioAssay AID493208 (National Center for Advancing Translational Sciences (NCATS), 2011).
In all, about 44,000 compounds went through this assay and about 340 (0.77%) were called active. Roughly 5% stayed inconclusive and do not appear here. The call rests on the fitted dose curve; in most records, active means well fitted inhibition curve with a large enough effect; inconclusive means small, poorly fitted or top-dose-only effect; inactive means flat fitted curve, though single readings scatter. The list shows a part of the results.

Experiment: Acumen qHTS Assay for Inhibitors of the mTORC1 Signaling Pathway in MEF (Tsc2-/-, p53-/-) Cells: Sytravon;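 further: plate controls were DMSO for no effect and rapamycin for full effect; nearly all actives have a fitted effect of over 50% in size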
Details: phospho-rpS6 immunofluorescence/PI, 24 h; series mostly up to 38.3 µM; activity change, negative = inhibition: at the top concentration
How it was run: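 Cell-based qHTS: Tsc2-/- p53-/- MEF, 24 h cpd, 37 °C; fix/perm, anti-phospho-S6 Alexa-488 + PI; Acumen 488 nm scan; pS6/PI ratio, % positive cells; rapamycin 7.5 nM = inhibition ref; PI count = viability.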

Activity change, negative = inhibition, inactive:
CC(=O)Nc1ccc(NC(=O)c2oc3c(c2C)-c2nn(Cc4ccccc4Cl)cc2CC3)cc1 7.2%
CCCCC(=O)Nc1ccc2nc(SCC(=O)N3CCc4ccccc43)sc2c1 -9.16%
O=C(CCn1c(=O)c2sccc2n(Cc2ccccc2F)c1=O)NCc1ccc2c(c1)OCO2 10.3%
CCOC(=O)c1ccc(NC(=O)Cn2nc3c4ccccc4n(Cc4cccc(F)c4)cc-3c2=O)cc1 1.52%
CCc1cccc(NC(=O)CCn2c(=O)c3cccn3c3cccnc32)c1 -19.9%
Cc1ccc(Nc2ccc3cc(S(=O)(=O)N4CCC(C)CC4)ccc3n2)c(Cl)c1 2.2%
CCOc1ccc(-n2cc(-c3ccccc3)c3c(NCCc4ccccc4)ncnc32)cc1 9.8%
Cc1cccc(NC(=O)Cn2nc(-c3ccccc3)c3cnc4ccccc4c32)c1 2.39%
CCOC(=O)N1CCc2c(sc3c2c(=O)n(Cc2ccccc2)c(=O)n3CC(=O)Nc2cccc(CC)c2)C1 0.154%
O=C(CCNS(=O)(=O)c1ccc2c(c1)CCCC(=O)N2)Nc1cccc(Cl)c1 2.15%
COc1ccc(C(=O)c2c(N)c(-c3nc(-c4ccc5c(c4)OCO5)cs3)c3ccccn23)cc1 -8.29%
O=C(NCCc1ccccc1)c1ccc(CS(=O)Cc2ccc(Cl)cc2)o1 (configuration not stated) -3.5%
COC(=O)Cn1c(C2CC(=O)N(c3c(C)cccc3C)C2)nc2ccccc21 (configuration not stated) 0.27%
Cc1cc(NC(=O)CCc2nc3cccnc3n2-c2ccccc2)ccc1Br 2.05%
O=C(Nc1ccc(F)cc1F)C1CCN(c2ncccn2)CC1 2.26%
O=S(=O)(c1ccc(C2CCCCC2)cc1)N1CCN(c2ccc(Cl)c(Cl)c2)CC1 -8.67%
Cc1ccccc1NC(=O)Cn1cc(C(=O)c2ccco2)c2ccccc21 -20.8%
Cc1ccc(C)c(N2CCN(c3ncnc4c3nc3n4CCCC3)CC2)c1 -1.48%
CCOC(=O)c1c(C)[nH]c(C)c1S(=O)(=O)N(C)CC(=O)Nc1ccc(OC)cc1 -11.2%
Cc1cccc(Cn2cc(S(=O)(=O)c3cccc(Cl)c3)c(=O)c3cc(F)c(N4CCOCC4)cc32)c1 -15.9%
Cn1c(=O)c2nc(SCC(=O)Nc3ccc(OC(F)(F)F)cc3)n(C)c2n(C)c1=O 0.634%
COc1ccc(CC(=O)Nc2c(C(=O)N3CCN(c4ccccc4)CC3)oc3ccccc23)cc1OC 5.07%
COc1ccc(-c2nc(CNC(=O)NC3CCCCC3)c(C)o2)cc1 0.0785%
COc1cc(C(CC(=O)Nc2ccc(C)c(F)c2)N2Cc3ccccc3C2=O)cc(OC)c1OC (configuration not stated) 0.427%
CCN(CC)c1ncnc2c1cnn2-c1cc(Cl)ccc1C -19.9%
O=C1OCC2=C1C(c1cccc(Cl)c1)CC(=O)N2c1ccc(C(F)(F)F)cc1 (configuration not stated) 8.79%
CCOc1ccccc1NC(=O)C1CCN(S(=O)(=O)c2c(C)noc2/C=C/c2ccco2)CC1 -14.2%
COc1cc(NC(=O)Cn2nc(C(F)(F)F)c3c2CCC3)cc(OC)c1OC -14.5%
COc1cc(OC)cc(-c2cc3nc(C)c(CCC(=O)NCCc4cccc(C)c4)c(C)n3n2)c1 0.0372%
COc1ccc(OC)c(CNC(=O)c2ccc(N3Cc4ccccc4Oc4ncccc43)s2)c1 -5.76%
O=C(CCn1c(=O)c2ccccc2n(CC(=O)Nc2cccc(F)c2)c1=O)NCCc1ccccc1 4.51%
Cc1noc(-c2ccc(-c3noc(-c4ccc(F)cc4)n3)cc2)n1 2.3%
CCOC(=O)c1cccc(NC(=O)CCSCCc2ccccn2)c1 0.523%
COc1cccc(CNC(=O)c2cc3c(-c4ccccc4F)nn(C)c3s2)c1 -1.93%
O=C(CCCn1c2ccccc2c(=O)c2ccccc21)Nc1cccc(Cl)c1 9.53%
COc1cc(C2Nc3ccccc3-c3cc(C)nn32)ccc1O (configuration not stated) -14.1%
Cc1ccc(NC(=O)Cn2nc(-c3ccccc3)nc(Cc3ccc(Cl)cc3)c2=O)cc1 -6.22%
O=C(NCCc1ccc(Cl)cc1)c1c2c(nc3ccccc13)C(=O)N(C1CCCCC1)C2 -10.2%
Cc1csc2nc(COC(=O)c3ccccc3NC(=O)c3cccc(Br)c3)cc(=O)n12 7.43%
O=S(=O)(c1ccc(Br)s1)N1CCN(c2cccc(C(F)(F)F)c2)CC1 -3.31%
COCCn1c(SCC(=O)Nc2cc(Cl)ccc2OC)nc2c([nH]c3ccccc32)c1=O 2.7%
COc1ccc(CNC(=O)CCNS(=O)(=O)c2ccc3c(c2)oc(=O)n3C)cc1 -16%
Cc1ccccc1C(=O)Nc1cc(C)c(O)c(-c2nc3ccccc3o2)c1 1.2%
CCC1CN(C(=O)Nc2ccccc2F)c2cc(C)ccc2O1 (configuration not stated) -17.3%
CCOc1ccc(-c2nc(Cn3c(=O)cc(C)c4c(C)nn(-c5ccccc5)c43)c(C)o2)cc1 1.26%
CCCCCCn1nnc2sc(-c3ccccc3)cc2c1=O -8.95%
CC1CCN(CC2CCN(C(=O)NCc3ccccc3)CC2)CC1 -3.55%
COc1cc(C)ccc1OCCSc1nc2ccc(NC(=O)c3ccco3)cc2s1 -9.45%
COc1ccc(C2CC(=O)c3cc(-c4nc(-c5cccc([N+](=O)[O-])c5)cs4)c(=O)n(-c4ccccc4)c3C2)cc1 (configuration not stated) 1.09%
CCN1c2ccccc2-c2nc(SCC(=O)Nc3cccc(C)c3C)ncc2S1(=O)=O -5.19%
CCn1cc(C(=O)N(C)Cc2ccccc2)c(=O)c2cc(S(=O)(=O)N3CCc4ccccc4C3)ccc21 7.77%
CCc1ccc(NC(=O)CSc2ccnc(=O)[nH]2)cc1 4.84%
COc1cccc(C(=O)NCC2OCCc3ccccc32)c1 (configuration not stated) 9.18%
O=C(NCCc1ccccc1)c1ccc2c(c1)N(Cc1ccc(Cl)cc1)C(=O)CS2 -8.08%
Cc1nn(C)c(C)c1S(=O)(=O)N(CC(=O)NCCc1ccccc1)c1ccc(C(C)C)cc1 -16.2%
Cc1ccc(C(=O)c2cn(Cc3cccc(Cl)c3)c3nc(C)ccc3c2=O)cc1 -6.85%
CCCCNC(=O)c1nn(C)c2c1CSc1ccccc1-2 -0.897%
O=C(CSCc1ccc(F)cc1)N1CCN(c2ccccc2F)CC1 1.84%
Cc1cc2c(cc1S(=O)(=O)NCc1ccc(F)cc1)n(C)c(=O)c(=O)n2C 1.68%
Cc1cccc(N2C(=O)CC(c3ccc(F)cc3)C3=C2COC3=O)c1 (configuration not stated) -16.1%
COc1ccc(NC(=O)c2ccco2)cc1NC(=O)COc1ccc(C)c(C)c1 1.15%
Cc1ccc(-c2nn3c(-c4ccccc4C)nnc3c3ccccc23)cc1 1.45%
